The values that follow come from the RNAGym collection of RNA variant scans (doi:10.7554/elife.90254).

The labels stand for the following.
B1: LINE1-mini (parent)
chain: GGCAGAGCUCAACACAGCGUGGCAAAGUGGCUGUGGCUAGACUGCC

Read counts are not given, so values of variants with three or more changes are uncertain.

Variants of B1 are the subject of the series. Nature of the series: self-cleavage, relative activity (ratio to wild type); higher = more cleavage; in vitro, sequencing; the parent is a self-cleaving ribozyme.
On to G7U G21U C37G, for which the self-cleavage is 0.02. On to G7U C23G A25C, for which the self-cleavage turned out to be 0.06. For the variant G7U G36U C42U U43A C45A, the self-cleavage was 0.01. Turning to G7U C10U A39G, the self-cleavage is 0.02. The figure for C8A C10G G19C G29U is 0.01.

For the variant C8A C15G G19U A26U, the self-cleavage was 0.33. The value for G7U G33C C37A was 0.01; that for C8A G21U U43A was 0.05; that for C8A G21C C23U A26C U32A G33A U34G was 0.04.

With C8A C18U C23A A24U G30A, the self-cleavage came to 0.09. For G7U U9A A14G G21C, the self-cleavage was found to be 0.01.

Regarding C8A G17C G27C G35C, the self-cleavage was determined as 0.12. As for G7U C13G G40C, the self-cleavage was determined as 0.02. Consider G7U G19U G21A, for which the self-cleavage worked out at 0.01.

Take C8A G29A C37U: the self-cleavage was 0.08. The figure for G7U C37A A39U C45A is 0.04. For C8A A11C C13A A26U, the self-cleavage was 0.06. Consider G7U A14G G17A U28A, for which the self-cleavage is 0.01. For the variant C8A A16G G29C, the self-cleavage was 0.03. The figure for C8A A12C C18A A24G A25C is 0.01.

Regarding C8A A25G U34G, the self-cleavage was 0.36. Turning to C8A G17C G36U A41G C42G, the self-cleavage stood at 0.12.

As to G7U C18G G30U C42U C46U, the self-cleavage came out at 0.03. As for C8A G21A G22A U38C, the self-cleavage was found to be 0.12. In the case of G7U A14U G17C G35U, the self-cleavage worked out at 0.11. The value for G7U U20A G27U G36U was 0.03; that for C8A A14U C46U was 0.23. Turning to C8A A11U G17A, the self-cleavage was found to be 0.03. Regarding C8A C18A U38C, the self-cleavage came out at 0.02. The value for C8A G19C C37G was 0.03; that for C8A C18A G22A A26U U32A was 0.08. For the variant C8A C31G G35U, the self-cleavage was found to be 0.01. Take C8A C10U A41U: the self-cleavage amounted to 0.04. The figure for G7U A14G G22A G30A U38G is 0; for G7U C8U U34G it is 0.29.

Regarding C8A G17A G21U C23G U38C, the self-cleavage came out at 0.04. The figure for G7U G22U A24U U34G is 0.05; for C8A G19U G27U it is 0.24.

For G7U U9A A26C, the self-cleavage amounted to 0.04.

Consider C8A C10U A11C C18U A26G, for which the self-cleavage was determined as 0.01.

In the case of G7U U32G U34G G35U U43A C45G C46A, the self-cleavage is 0.04. For G7U A14C A16G G22C A26G U28G C37U, the self-cleavage was found to be 0. Consider C8A C23U G27U U34C, for which the self-cleavage was 0.53. For G7U A14U G17U C45U, the self-cleavage worked out at 0.06. With C8A C10A A11U U34A, the self-cleavage is 0.03. As to C8A A24U U28C U34A, the self-cleavage was determined as 0.02. C8A C10A A16C C18G G29U: the self-cleavage is 0.03. As for C8A G19U G22A G35U A39C, the self-cleavage is 0.02. G7U C18G G21A C23A: the self-cleavage turned out to be 0.04. As to G7U C13A A41G, the self-cleavage stood at 0.05. For C8A A12C G17U G36A, the self-cleavage was found to be 0.02. For G7U C18G A26U, the self-cleavage was 0.05. The value for G7U C18G U38C was 0.07; that for G7U C18G U20C was 0.13; that for C8A A11U G22U C31G G35U was 0.01. Turning to C8A C10A A26G C42U, the self-cleavage is 0.02. For G7U C10A C13A C23A A39G C42G, the self-cleavage came to 0.01. In the case of G7U C8A A41C, the self-cleavage stood at 0.05.

C8A G22U A26G G29A G36A C46G: the self-cleavage amounted to 0.49. As to G7U G40U C42G, the self-cleavage came to 0.02. For the variant C8A A14C C42U, the self-cleavage came to 0.05.

Consider G7U G17A G33C, for which the self-cleavage was found to be 0.07. As to G7U U38C G44C, the self-cleavage came out at 0.07.

For the variant C8A C13A C15A A16G G19U A25U A41U, the self-cleavage is 0.1. Take G7U U9G G17U C18A: the self-cleavage turned out to be 0.04.

Take G7U C13A G27C U38C G40U: the self-cleavage is 0.21. The value for C8A A11G C13A G30U G40A was 0.03. On to C8A C15A G21A G36C, for which the self-cleavage came to 0.06. The value for G7U C31A C45A was 0.16. In the case of C8A A25U G35U G36U C46U, the self-cleavage was determined as 0.16. For the variant C8A C15A A16U G35C A41U, the self-cleavage amounted to 0.11. For the variant G7U U38A A41C C42A, the self-cleavage worked out at 0.03. Regarding G7U C15G C46A, the self-cleavage was 0.16. On to G7U G27C G44A, for which the self-cleavage worked out at 0.14. The figure for C8A G17A G35A G36U is 0.03.

For G7U A14G C31A, the self-cleavage stood at 0.11. Regarding G7U C10G G22C A26C A39U C42G, the self-cleavage worked out at 0. The value for C8A G22U G30U C42A was 0.19. In the case of G7U C10U U43A G44C, the self-cleavage is 0.09. For G7U G17A C37U A41C, the self-cleavage amounted to 0.1. The value for G7U C31A G36A G40C was 0.04; that for C8A G21U C23G U32G G35A was 0.07. For G7U C10U G17U C18G U20C A24G G29A C37A, the self-cleavage was determined as 0.05. For the variant C8A C18U G29C, the self-cleavage came out at 0.15. For G7U U9G C13G C18A A41C, the self-cleavage was 0.24.

As to G7U C10A A14U U28G U32A, the self-cleavage turned out to be 0.03. In the case of G7U A26U U28A, the self-cleavage was 0.04. The figure for C8A G17C G19A A25G G33C is 0.17; for G7U G17A G36A it is 0.04; for C8A A12C G19U C37G it is 0. In the case of G7U C37G C45G, the self-cleavage is 0.03. C8A G22A A26U C46A: the self-cleavage amounted to 0.14.

Consider C8A G27U C45A, for which the self-cleavage came to 0.46. As for G7U A16G G29A C45A, the self-cleavage is 0.21.

For the variant C8A A12G C15A, the self-cleavage came to 0.37. On to G7U A25C G27U, for which the self-cleavage worked out at 0.02.

Take G7U U9C C15A G44A: the self-cleavage worked out at 0.01.

As to C8A A14U G19A A25G G27U, the self-cleavage was determined as 0.19. The figure for G7U C8G C13U C18A C23U C37U is 0.16. On to C8A C13U A26U, for which the self-cleavage turned out to be 2.13. As for G7U C8G C15U G17U G22U C23U G30C C45U, the self-cleavage is 0.02. As for C8A C10G G40A, the self-cleavage worked out at 0.01. As to C8A A11C G17A G27C U32G A39G, the self-cleavage was found to be 0. The figure for G7U C37G C46G is 0.02. As to C8A C10U A14C G35A, the self-cleavage is 0.02. The value for C8A A11U G29A G44C was 0.01; that for C8A C13A A26G A41U was 0.12; that for C8A A24U A25U G29U G35C was 0.05. With G7U G44U C46U, the self-cleavage worked out at 0.21. As for C8A C10G A11U U32C C37A, the self-cleavage worked out at 0.01.

As to G7U C23A U28C C37G, the self-cleavage worked out at 0.03. Regarding C8A A11U A12G C18A G21C A25U G30U, the self-cleavage was 0.01. The value for G7U C10G C15U G17A C18A C31U U34A was 0.01; that for G7U C13A U20G G21U U28A was 0.07; that for C8A C10A U28A G29U was 0.01. Consider G7U C13A G30A A39G G44A, for which the self-cleavage was determined as 0.06.

For C8A A11C G29C G36C A39C, the self-cleavage is 0.02. On to G7U C8A U34C, for which the self-cleavage was determined as 0.11. Consider C8A A14C C31A, for which the self-cleavage is 0.15. Take G7U C8G A16G C42U U43C C46U: the self-cleavage is 0.03. For C8A A14U G21A G29C U38C, the self-cleavage worked out at 0.19.

Take G7U A24G G35C: the self-cleavage amounted to 0.05. For G7U G21U U43C, the self-cleavage worked out at 0.02. The figure for G7U G27C A39U is 0.07; for G7U G21U G30U G33C G36C it is 0.12. For the variant G7U G22C G44A, the self-cleavage amounted to 0.03. As for C8A C10G A14C C15G G30C U32A, the self-cleavage turned out to be 0. Regarding C8A A12U A24U A41C, the self-cleavage amounted to 0.06. G7U C8G C10A G21A A24C: the self-cleavage amounted to 0.01. Regarding C8A G22U G36A, the self-cleavage amounted to 0.55.

For the variant G7U C10G G35A, the self-cleavage was 0.03.

As to G7U C8A C10U G36U, the self-cleavage is 0.03.

For C8A C13A C15U C31A, the self-cleavage was found to be 0.41. As to C8A G17U G30A A39U U43A C45A, the self-cleavage is 0.42. Take C8A A11U C37A: the self-cleavage was found to be 0.11. Regarding G7U U9A C18A G21C A24U G36A, the self-cleavage is 0.01. Consider C8A C23G C42G, for which the self-cleavage amounted to 0.51. The value for G7U G22C G29U A41U C42U G44A was 0.21; that for G7U C10A C13A C31U was 0.02; that for G7U G22U C45A was 0.17.

On to C8A G19C C23U, for which the self-cleavage was determined as 0.09. Consider G7U C10A C18U G30C, for which the self-cleavage was found to be 0.01.

As to C8A A16C G17A, the self-cleavage turned out to be 0.08.

For G7U A26G U32A, the self-cleavage was 0.17. Consider C8A C13U U28C, for which the self-cleavage was 0.64.

As to C8A G17U C31G U32A U43C C45A, the self-cleavage turned out to be 0.14.

Consider C8A C37G G40U A41U, for which the self-cleavage was determined as 0.01.

Turning to G7U G30U U38G, the self-cleavage was 0. Regarding C8A G19U U32G G40A, the self-cleavage came out at 0.03. The value for C8A G22U G29A was 0.19. With C8A C18U A25U U32A C37G, the self-cleavage is 0.17. On to G7U C10A A16U A24U G44A C45G, for which the self-cleavage is 0.02.

Take C8A G21C U32C: the self-cleavage amounted to 0.82. C8A A11C G19U: the self-cleavage was determined as 0.03. Turning to G7U C13U C46A, the self-cleavage is 0.17. As to G7U C18U C23G A25C, the self-cleavage is 0.03.

Turning to C8A C37A A39U, the self-cleavage worked out at 0.02. The figure for C8A C15G G17C G27A A39U C46A is 0.13; for G7U C8G A16C C46U it is 0.04; for C8A A24C G29C it is 0.32.

As for C8A C31A C37U, the self-cleavage was 0.05. With G7U A24G A39C, the self-cleavage turned out to be 0.19.

In the case of G7U C31G A41U, the self-cleavage was 0.09. In the case of G7U C8U U9A C46A, the self-cleavage was 0.15. Consider G7U G33U G40U, for which the self-cleavage was found to be 0.06.

For the variant G7U G21U A24C, the self-cleavage was 0.04.

G7U A14C G33A: the self-cleavage was 0.05.
